In all, about 94,000 compounds went through this assay and about 4,000 (4.3%) were called active. The shares of active, inactive and inconclusive entries below differ from those in the screen. The call rests on the fitted dose curve; in most records, active means well fitted inhibition curve with a large enough effect; inconclusive means small, poorly fitted or top-dose-only effect; inactive means no such curve, though single readings can be large or run the other way. Potencies of inconclusive entries are doubtful fits and often do not repeat.
Experiment: Cytotoxic Profiling in NIH 3T3 Cell Line of Diverse Libraries Using Quantitative High-Throughput Screening; further: nearly all actives have a fitted effect of over 55% in size
Conditions: NIH 3T3 viability, CellTiter-Glo ATP luminescence, 48-72 h; series mostly up to 96.7 µM
Summary of the method: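 ATP-dependent luminescence (CellTiter-Glo) served as the viability signal for NIH 3T3 cells treated with compound for 48 or 72 hr at 37 °C.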
Potency means the concentration at half of the fitted maximal effect; tags describe the fitted curve by direction and shape.

Row | Structure (SMILES) | Potency
1 | Cc1ccccc1NC(=O)c1ccc2c(c1)OCCN(CCC(F)(F)F)C2 | inconclusive: 20 µM [inhibitor, full curve, poor fit]
2 | COc1ccc(-c2noc([C@@H]3Cc4nc[nH]c4CN3C(=O)Nc3ccccc3)n2)cc1 | inconclusive: 56.2 µM [inhibitor, partial curve, poor fit]
3 | c1ccc(CC2=NOC3(CCN(CC4CCCCC4)CC3)C2)cc1 | inconclusive: 56.2 µM [inhibitor, single point]
4 | COc1ccccc1OCCNC(=O)C1CCN(c2cc(C(F)(F)F)ncn2)CC1 | inconclusive: 35.5 µM [inhibitor, partial curve, poor fit]
5 | COc1ccc(CC(=O)NC2CCN(Cc3cccc(-c4ccc(F)c(F)c4)c3)CC2)cc1 | inactive
6 | CCN1CCCCC12Cc1ccccc1CN(S(=O)(=O)c1ccccc1)C2 (stereo not drawn) | inactive
7 | Cc1ccc(NC(=O)N2CCC(CCNC(=O)C(C)C)CC2)cc1 | inactive
8 | O=C(CN1CCCc2nc(C3CC3)ncc2C1=O)NCCCN1CCc2ccccc2C1 | inactive
9 | COc1ccc(C(=O)N2CCC(Cc3nncn3C)C2)cc1 (stereo not drawn) | inactive
10 | CCCCn1c(=O)c(C(=O)NCCc2ccc(Cl)cc2)nc2cccnc21 | inconclusive: 50.1 µM [inhibitor, partial curve, poor fit]
11 | O=C(CC1CCCC1)N1CCCCCC1c1nnc(-c2ccccc2)o1 (stereo not drawn) | inconclusive: 50.1 µM [inhibitor, partial curve, poor fit]
12 | Cc1ccc(OCc2nc(C3CCCN3C(=O)C3CC3)no2)cc1 (stereo not drawn) | inactive
13 | CC(C)CNC(=O)N1CC(Oc2ccccc2-c2nc(-c3ccccc3)no2)C1 | inconclusive: 50.1 µM [inhibitor, partial curve, poor fit]
14 | Fc1ccc(-c2nnc3ccc(Nc4ccc(N5CCOCC5)cc4)nn23)nc1 | inconclusive: 28.2 µM [inhibitor, full curve, poor fit]
15 | Cc1ccccc1-c1nc(C2CC(=O)N(c3ccc(Cl)cc3)C2)no1 (stereo not drawn) | inconclusive: 70.8 µM [inhibitor, single point]
16 | Cn1cc2c3c(cccc31)CN(C(=O)c1cccs1)CC2 | inconclusive: 70.8 µM [inhibitor, single point]
17 | COc1ccc(CN2Cc3[nH]nc(-c4ccccc4OC)c3CC2=O)cc1 | inconclusive: 39.8 µM [inhibitor, partial curve, poor fit]
18 | COc1cccc(NC(=O)N2CCC(Cn3cc(C4CCCC4)nn3)CC2)c1 | inconclusive: 50.1 µM [inhibitor, partial curve, poor fit]
